Results as given in PMC12136788.
Some of the results follow.

T1: UNK ZnF1-3 (human, UniProt Q9C0B0 31-174)
T1 sequence: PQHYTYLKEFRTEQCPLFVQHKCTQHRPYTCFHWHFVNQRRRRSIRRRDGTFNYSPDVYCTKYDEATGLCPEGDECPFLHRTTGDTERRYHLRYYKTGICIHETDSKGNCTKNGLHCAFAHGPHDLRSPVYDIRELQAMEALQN

B1: chr5:31223311:31223312:+_ENSMUSG00000029163_ENSMUST00000031055|mus_hu|FALSE|FALSE (ssRNA)
RNA: GGGAGUUCUACAGUCCGACGAUCUGUCUCUUCAGCCGACGUAGACACGUCGGGCGGGACCCCAGUCUACGCGUGUUCAAGCUCUGGGUCCCCAUAGAGCAGGGCCCCGCUGAAGAUGGUGAGCGGCUCCUCCGAGUGCGCCAGCAACAGAGGAUUGAGCAUCA
B2: chr21:40768814:40768815:+_ENSG00000182093_ENST00000333781|hu_hu|motif|central (ssRNA)
RNA: GGGAGUUCUACAGUCCGACGAUCCCAUCCUCCUGUUCAGCUGAACGGAUGAAGCACAAUAGCGACAACUUUGUUACAGACGGAAAUCCAACAGGUAAUUCCAACACCACCUGCUACUCUAGUAGGAAAGGCUACCAGGCGGUCCAACAGAGGAUUGAGCAUCA
B3: chr12:39756943:39756944:-_ENSG00000139116_ENST00000544797|hu_mus|hu_hu_hu_mus_False|18_78 (ssRNA)
RNA: GGGAGUUCUACAGUCCGACGAUCGGUUUGGCUGUUACCCCCAAGGGAAUCCUGCAAUAGUCUUGUUAGCUUAGAGUCUCUGUAAGGGACAUGGGUGGCUCUCUUGCUCUUGUCCCCCAAGGCACUUAUUACAUUCCCAAGAGCCAACAGAGGAUUGAGCAUCA
B4: 46320489_46320609_3168_CDS_ENSG00000139218_ENST00000369367|human|control|control (ssRNA)
RNA: GGGAGUUCUACAGUCCGACGAUCUUUUCUUGUAUUUUCAUUCUGUUUCUCUGGGUCAUUCUUUCUGUACCGAUCAUUUCCUCGUGGACAUCUCCAACCAUCAUUUGCCCAUCUUCCCUUCCACCGGGGAGAGUAACUAUCUCUCAACAGAGGAUUGAGCAUCA
B5: 213244347_213251121_315_CDS_ENSG00000136643_ENST00000366960|human|control|control (ssRNA)
RNA: GGGAGUUCUACAGUCCGACGAUCUGAAUGUCGGAAUAAGUUUUUGUGAAUUUGCCAUAGUUCUUUGUGUAGUUUCUUAAAAUCACUGUAUCUCUUCCAUACAAUUAUCUCCUGGACAUCCUCUGGAUUUCUUCGUGAAACAACCAACAGAGGAUUGAGCAUCA
B6: chr17:88379672:88379673:+_ENSMUSG00000005370_ENSMUST00000005503|mus_hu|motif|central (ssRNA)
RNA: GGGAGUUCUACAGUCCGACGAUCUCCCUUCUGGGCUUCCUUUGAUUUUGAACCUGUAUAUGGCUUUAAAAGCCUUUUGCGGACCCAGCCCCUUGUUGGGCUGUCAUCAAAAAACUGUACAUGAACACGGACUGAUUUCCCUUUCAACAGAGGAUUGAGCAUCA
B7: chr8:59488481:59488482:+_ENSG00000137575_ENST00000447182|hu_mus|FALSE|FALSE (ssRNA)
RNA: GGGAGUUCUACAGUCCGACGAUCUCCAGCAUCGUUACCUGUCACAGGUGCUACCAUAUAGUUCACACUGGAUGGUCUUGCUACCAACCCUUGUGCUGGUGCUCCAGAGACCAUGGGCAUGCUCUCACAUAUUUCAGCUUCAUUCAACAGAGGAUUGAGCAUCA
B8: chr12:39752152:39752153:-_ENSG00000139116_ENST00000544797|hu_mus|FALSE|FALSE (ssRNA)
RNA: GGGAGUUCUACAGUCCGACGAUCGUACUUCAGAGUGUUUAACGUCUCCAUGAAAUCCCUGUCUGAAGGGCUGACGCAUGCUAUCAUGAUGGUUUGGCUGUUACCCCCAAGGGAAUCCUGCAAGAGUCUUGUCAGCUUAGAGUCCAACAGAGGAUUGAGCAUCA
B9: chr3:58352644:58352645:+_ENSMUSG00000027810_ENSMUST00000029387|mus_mus|FALSE|FALSE (ssRNA)
RNA: GGGAGUUCUACAGUCCGACGAUCCUUAUGCAAAAGAGAGCCAGUAUAAUGCCAGAUCUUAUACCCAUUAUUAACACGUAACCUAGGAGCACAUGUGGCUGUUAAGAUAUGCUCACCAUCUGGGCACCAGGCAAAAUAUGUAGACAACAGAGGAUUGAGCAUCA
B10: chr1:155751701:155751702:+_ENSMUSG00000026473_ENSMUST00000086199|mus_mus|FALSE|FALSE (ssRNA)
RNA: GGGAGUUCUACAGUCCGACGAUCAAACAUGGCAACAGGAUGGAGGUACAUGUCGCUGUUGGAGCCUUCAGACUGAAAGGUACUAGAGCCAUCAAAGUUCCACUCAGGUAACUCUUCCACACACUUGGGCUCACAGUCCAGGGUCAACAGAGGAUUGAGCAUCA
B11: 102558931_102559051_105_3pUTR_ENSMUSG00000020925_ENSMUST00000092569|mouse|control|control (ssRNA)
RNA: GGGAGUUCUACAGUCCGACGAUCGCGCCUCCAACCGUCCGUCAAGCCAGGAUCCAAAAGCCCCGCCAUCGCCUUCACCGAGGACUGCCGCGGCCACUUCGCUGGGCGCCGCCAUGCUGGGGACAGGGUCCUGCCGGACCCGAGCAACAGAGGAUUGAGCAUCA
B12: chr7:44244176:44244177:+_ENSG00000106636_ENST00000223369|hu_mus|hu_hu_hu_mus_False|48_108 (ssRNA)
RNA: GGGAGUUCUACAGUCCGACGAUCACUAUCAUUCCGGACGUAGACAUGGCAAAGAUACUCUUGUUCUUUGACAGAAGCUCUGCUGCCUUUCGAUGAGCGUUCCACAAUCAGUUGACUUGUAAAGGUCAUGAAUUCCUGCACACUCAACAGAGGAUUGAGCAUCA
B13: chr7:56126341:56126342:+_ENSG00000146731_ENST00000540286|hu_mus|hu_hu_hu_mus_True|78_98 (ssRNA)
RNA: GGGAGUUCUACAGUCCGACGAUCCAUGUUUCUCCUCUUAGCUCUGCGCAGAGCUACUAUGCCUUCUUUCGCAAGGGCAUCUAAGGAAAAGGGGUCAAUCCCCUUUUGAUUAAUAACGACAAAUCCUUUAUCUGAGUCACCACACAACAGAGGAUUGAGCAUCA
B14: chr16:75203323:75203324:+_ENSG00000184517_ENST00000393430|hu_hu|motif|central (ssRNA)
RNA: GGGAGUUCUACAGUCCGACGAUCUGCUUUUCCAAAUUCAUUACACUCAUCAGUCUGCUUUCCUGCAUAGCUUCUAUUACGGUUAAGCAAGUCUGAAUUAUAUUUCAAAGUUUUUUCAUAUAAGUCAUAUUUAUAAGGUACUUGCAACAGAGGAUUGAGCAUCA
B15: chr7:7679991:7679992:-_ENSG00000106399_ENST00000396682|hu_hu|hu_hu_hu_mus_False|28_68 (ssRNA)
RNA: GGGAGUUCUACAGUCCGACGAUCUGGGAUGAAUCUUUUCCAGCUUCCCCACGAAGCACACGGGCCGGUCGAUGAAUUGUGGUAACAUGCUGGCGUUGACGCGCGCUCUGGGCAAGUGCAUUAUGUCCUCCAUGAUUCUGCCGCCAACAGAGGAUUGAGCAUCA
B16: 72196774_72196894_5025_CDS_ENSG00000197555_ENST00000381232|human|control|control (ssRNA)
RNA: GGGAGUUCUACAGUCCGACGAUCGGAGGUGAAAAAGUGCUCCCUCUGGCUAUUGUAAAUGCUCUCGUCCGACAGUGUUCUGUGCAAGGCCCGCCGUGAGGUGGGGGUGCUGGGGAAAGGAGACUGAGGAGAGGAGAGUGCGUGCAACAGAGGAUUGAGCAUCA
B17: 64395045_64395165_1508_CDS_ENSG00000118482_ENST00000393387|human|control|control (ssRNA)
RNA: GGGAGUUCUACAGUCCGACGAUCAUACUUUGCUGCAACAAUUUUCUUCGGAGCAUCUGUGGUCAUGUUUUGCUUAGAAUGAAUUACAGGUUUUGUAUGUUUGGAUUUUACACUUUUUGACUCUAAGUAAGAAACGCUACUUGACAACAGAGGAUUGAGCAUCA
B18: chr12:105536279:105536280:+_ENSG00000136051_ENST00000332180|hu_mus|hu_hu_hu_mus_True|38_38 (ssRNA)
RNA: GGGAGUUCUACAGUCCGACGAUCAGCACUGAACAUGUAAUGUAAUCUGGCUGCAUCGACAGCAUUUUCAUAUACAUCAUCUAAAUAAAUCGGGAAGACAGCUCGAUGCCAGUAUAAAAAACAGCAGUCACACUGUGCUUGGACCAACAGAGGAUUGAGCAUCA
B19: chr5:66692119:66692120:-_ENSMUSG00000029207_ENSMUST00000159786|mus_hu|FALSE|FALSE (ssRNA)
RNA: GGGAGUUCUACAGUCCGACGAUCAAUACCACUGCGUAAGGAAUUUGGACAUCUUUCUCCCACUCGUGUAGGGAAUUCUAAGAUUCCCUGACAAUAGAUCUUUCCAUACCUGCUCUUCUUAGUAUAUGCCCAGAAUCAUUCUGGCAACAGAGGAUUGAGCAUCA
B20: chr1:220276048:220276049:+_ENSG00000067704_ENST00000302637|hu_hu|motif|central (ssRNA)
RNA: GGGAGUUCUACAGUCCGACGAUCGCAAACAGCUUCAUUGGCUGGAAUCGUCCAAGGUUGUGUGGUCCAGACCAAAAUACGGACAGGAGAUGAACCAUCUAUAAGAGAUGCCAAUUUUGGAGAAGGCUUUAAGAGAGGAAAUUUCAACAGAGGAUUGAGCAUCA
B21: 18900816_18902213_1052_CDS_ENSG00000157106_ENST00000446231|human|control|control (ssRNA)
RNA: GGGAGUUCUACAGUCCGACGAUCGAAGAUCUUCUCAGCCUCAUAGCUCAGAGAAGCACAAAGAAGGCCAAGACAGCAAGCUCCCUCCUGUCUCAACUCCUGAAGCAAUUUGCUACUUUCAUUAAGCACGUCAUGUACAGCAGCCAACAGAGGAUUGAGCAUCA
B22: chr2:202488911:202488912:-_ENSG00000155755_ENST00000286196|hu_mus|hu_hu_hu_mus_False|18_88 (ssRNA)
RNA: GGGAGUUCUACAGUCCGACGAUCAUUGAAACAUUUUUCAUAAUCUCAGAGAUGUUUUCAGCAUUAUGUAACAAAAGCUCAAUUGUAAAUACAUGUAUCUUAUAAAAAUACACUUAAAUUUAAAAACGGGGAGCGCAGGCGCCACAACAGAGGAUUGAGCAUCA

What follows are binders tested against T1, UNK ZnF1-3 (assay: nsRBNS (natural sequence RNA bind-n-seq); RBNS binding buffer (assumed for nsRBNS): 25 mM Tris pH 7.5, 150 mM KCl, 3 mM MgCl2, 0.01% Triton X-100, 500 ug/ml BSA, 20 U/ml SUPERase-In, 4 C; UNK is unkempt and MSI1 is Musashi-1; names of the RNAs are library labels; protein concentration not given here; high values mean tight binding).

| Binder | binding signal [enrichment R] |
| --- | --- |
| B1 | 0.61 |
| B2 | 0.841 |
| B3 | 0.662 |
| B4 | 0.438 |
| B5 | 0.636 |
| B6 | 0.59 |
| B7 | 0.652 |
| B8 | 0.735 |
| B9 | 1.2 |
| B10 | 1.15 |
| B11 | 0.822 |
| B12 | 0.65 |
| B13 | 0.642 |
| B14 | 0.848 |
| B15 | 0.568 |
| B16 | 1.33 |
| B17 | 0.892 |
| B18 | 2.37 |
| B19 | 0.742 |
| B20 | 1.75 |
| B21 | 1.22 |
| B22 | 1.97 |
